# Some of the results follow. These are noisy estimates, calculated here from bound and input reads.
# Molecular target: T1, Pho4 (S. cerevisiae) (UniProt P07270)
# T1 sequence: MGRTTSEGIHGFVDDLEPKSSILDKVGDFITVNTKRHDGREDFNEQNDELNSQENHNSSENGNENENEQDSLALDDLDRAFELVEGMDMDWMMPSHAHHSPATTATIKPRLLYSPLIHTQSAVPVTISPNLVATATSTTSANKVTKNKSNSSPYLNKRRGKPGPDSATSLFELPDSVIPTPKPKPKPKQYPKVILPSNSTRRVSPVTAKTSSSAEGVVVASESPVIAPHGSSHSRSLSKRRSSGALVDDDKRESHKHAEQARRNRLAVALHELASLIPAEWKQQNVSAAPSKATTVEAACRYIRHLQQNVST
# Assay: relative binding free energy (BET-seq); higher = weaker binding
# Conditions: reference: library average
row,Sequence,relative binding free energy [kcal/mol]
1,AAAAGCACGTGTTTGG,-0.2
2,TGGATCACGTGGCAGG,0.11
3,TGGTACACGTGGGATC,-0.02
4,AGTCGCACGTGTGGGC,0.02
5,AATTGCACGTGCGTTT,-0.12
6,TCGCTCACGTGAGGGT,0.16
7,TTAGTCACGTGTGTTT,0.1
8,TAATTCACGTGGGGTT,0.07
9,TGTAACACGTGTGTTC,0.04
10,GGATACACGTGGTGTC,-0.01
11,CTGGGCACGTGTGGTT,-0.14
12,TTCCACACGTGTGTGT,0.09
13,GCTGGCACGTGCTCGT,-0.04
14,TTATTCACGTGTTTCA,0.26
15,AATTGCACGTGTTTTT,0.02
16,AGATGCACGTGATTTA,0.11
17,AAAGTCACGTGGTAAA,0.19
18,CGTTGCACGTGGTGGG,0.02
19,TACGGCACGTGTTTAA,0
20,GAGATCACGTGGTTAT,0.15
21,GATTGCACGTGTGGAG,0.11
22,TATGACACGTGGTTGA,-0.12
23,ATGAGCACGTGTTCTG,-0.03
24,TGGTTCACGTGTCTAA,0.53
25,TTCTGCACGTGAAGTG,0.05
26,TGGAACACGTGGTCTT,-0.02

row,Sequence,relative binding free energy [kcal/mol]
1,AAAAGCACGTGGTTAT,-0.09
2,GGGATCACGTGCTGGG,0.22
3,GGTCGCACGTGGAGTG,0.02
4,TTTCACACGTGCGGTT,0.01
5,TGTCGCACGTGTCTGG,-0.07
6,GATGTCACGTGAAGAG,0.28
7,GGGGTCACGTGAACAG,0.19
8,AGCTGCACGTGTAGTT,-0.06
9,TGACTCACGTGTGGTA,0.1
10,TGAGCCACGTGTGTGG,-0.15
11,GTGGCCACGTGTGGAT,-0.04
12,AATTGCACGTGGTTCG,-0.13
13,GAGATCACGTGTTAGT,0.06
14,GTAAGCACGTGTCGGA,0.14
15,GATCGCACGTGGAGTG,-0.02
16,ATTAGCACGTGGCGTA,-0.26
17,GAGGGCACGTGTGTGC,-0.03
18,GGCCTCACGTGGGTGT,0.06
19,CTGGTCACGTGTCGGA,0.16
20,AGGTGCACGTGGATAT,-0.08
21,CTGTACACGTGGGGGT,-0.09
22,TATGGCACGTGTATTA,-0.03
23,TTTAACACGTGTCTTA,-0.03
24,CACATCACGTGGGTGT,0.01
25,CATGTCACGTGTTAGA,0.2
26,GTTCACACGTGAGGGA,0.27

row,Sequence,relative binding free energy [kcal/mol]
1,TCGGTCACGTGTAGTG,0.12
2,ATCCGCACGTGTGGTT,0.01
3,GGTAGCACGTGAATAT,0.16
4,GGTGTCACGTGGATAG,0.02
5,CGTGGCACGTGTCTGG,0.03
6,TAAGGCACGTGGCTCG,-0.09
7,TTGGTCACGTGGCTTC,0.05
8,TGTTTCACGTGGTTCC,0.29
9,GATGGCACGTGTTTAG,-0.02
10,AAATGCACGTGGGTGG,-0.23
11,GGTAACACGTGCGGGG,0.05
12,GATAGCACGTGTTGCT,0.01
13,TATTACACGTGAAGGG,0.46
14,ATGTACACGTGAAATG,0.16
15,GGAGTCACGTGCCGGG,-0.11
16,TGGCTCACGTGTATAG,0.17
17,CATGGCACGTGTTGCT,-0.03
18,TAAATCACGTGTTAGG,0.14
19,TGGGGCACGTGTACCG,-0.17
20,ATACACACGTGGGTGG,-0.13
21,AGCTGCACGTGATGGG,0.11
22,TGGAGCACGTGCGAGA,-0.06
23,CCTGTCACGTGGTGAG,-0.01
24,GTTGCCACGTGGCGGT,-0.04
25,GGGTTCACGTGTCCTT,0.48
26,CGTGACACGTGATTGG,0.12

row,Sequence,relative binding free energy [kcal/mol]
1,TTGTTCACGTGGTATA,0.27
2,CTTGGCACGTGGTTTT,-0.24
3,TGTCTCACGTGGGAGT,0.08
4,TGTGACACGTGAGTGG,0.19
5,GTAAGCACGTGTAAAG,0.12
6,CGCGTCACGTGTTGTG,0.09
7,CTTAGCACGTGTGTTG,-0.14
8,GTTTGCACGTGGTGTG,0.03
9,TATTTCACGTGCATTG,0.25
10,AGACGCACGTGGGGGC,-0.23
11,TGCGGCACGTGGTGCA,-0.14
12,AGGGACACGTGGGGCT,-0.02
13,GTCGACACGTGGGGGC,-0.03
14,TTTGGCACGTGTATTC,-0.03
15,TTCGACACGTGGGTTG,-0.2
16,GGTCGCACGTGTCGGT,0
17,CAGATCACGTGGTTTT,0.18
18,TTTCGCACGTGGGAAA,0.08
19,GCGAGCACGTGTTGGA,0.11
20,TAGGACACGTGAAGTG,0.14
21,ACTGTCACGTGTGCGT,0.08
22,ATGTTCACGTGTAAAG,0.21
23,TTCAACACGTGGTAGG,-0.14
24,GGGATCACGTGGGCGA,0
25,GCTGGCACGTGGGTTG,-0.17
26,GATATCACGTGTTGAT,0.23

row,Sequence,relative binding free energy [kcal/mol]
1,GGAAACACGTGGAGGT,-0.01
2,GGGTACACGTGGAAGG,0.18
3,TGTTTCACGTGGCTGC,0.25
4,GTAGTCACGTGTTTGT,0.09
5,GCTTGCACGTGTTAGG,0.05
6,TGATTCACGTGGTTGC,0.24
7,ATGTTCACGTGAATAA,0.38
8,ACGTTCACGTGGGTCG,0.07
9,GATGCCACGTGTGGGT,-0.01
10,TGAAGCACGTGGTATG,-0.27
11,GGGTGCACGTGTACGG,0.06
12,ATGTTCACGTGATTAC,0.37
13,TCGGTCACGTGGCATG,0
14,TGTAACACGTGCGGGA,-0.01
15,AATGTCACGTGGGGGG,0.04
16,TAGGTCACGTGTATGT,0.07
17,CAGGCCACGTGTTTGG,-0.06
18,CTTTCCACGTGGTGGG,0.04
19,CTGAGCACGTGCTGTT,-0.09
20,GTATGCACGTGTATAG,-0.11
21,TGAGTCACGTGTTGAG,0.04
22,TTTTCCACGTGCTAGT,0.01
23,GGCGACACGTGGCAGG,0.01
24,ATGGTCACGTGACGAG,0.13
25,TAGGTCACGTGCGTGG,-0.04
26,TCTTCCACGTGTAGTG,0.23

row,Sequence,relative binding free energy [kcal/mol]
1,TTTATCACGTGTTAGT,0.15
2,ACAGTCACGTGTTAGG,0.12
3,AGATGCACGTGGTTTT,0
4,TTCTTCACGTGTGCAT,0.31
5,GTGAGCACGTGTAGGC,-0.1
6,GGGGGCACGTGAGTAC,0.15
7,CGGAGCACGTGTGAGT,-0.03
8,GCTTTCACGTGGGTAA,0.3
9,CTGATCACGTGGTGGG,0.09
10,GTTGCCACGTGAGGGG,0.11
11,GGAATCACGTGTAATT,0.32
12,TTGGTCACGTGTGCAG,-0.06
13,GTGGCCACGTGGGATG,-0.09
14,ATGTGCACGTGTTTCG,0.03
15,GGATTCACGTGCGGAT,0.24
16,TGCGTCACGTGTGGAG,0.07
17,GTTGACACGTGCAGGA,0.02
18,ATTTTCACGTGAGAAG,0.44
19,TGGGGCACGTGAACGC,0.07
20,TGCCGCACGTGATGGG,-0.04
21,TGAATCACGTGGTATG,0.09
22,TGTAGCACGTGTTATA,-0.18
23,CATTGCACGTGGGGTC,-0.09
24,GTGTGCACGTGCTTGC,-0.03
25,TGGGACACGTGGGCGT,0
26,GTGTACACGTGTAGAA,0.12

row,Sequence,relative binding free energy [kcal/mol]
1,CGTGTCACGTGTGGCA,0.11
2,CTTTGCACGTGGGTAC,-0.12
3,GAAGTCACGTGGAGGT,0.21
4,GTGTACACGTGTACTG,0.11
5,TCGTTCACGTGGTTGA,0.14
6,TGTTGCACGTGGCATT,-0.09
7,TTTCGCACGTGTGTCA,0.07
8,TTAATCACGTGATTTA,0.18
9,AGTCTCACGTGTGTGA,0.2
10,ATGTACACGTGAAATT,0.53
11,AAGGGCACGTGTAGTA,0.01
12,ATTCGCACGTGTGTTG,0.03
13,TTAAACACGTGTTCTT,-0.06
14,ATTCGCACGTGTAAGG,0.05
15,TAGTCCACGTGAGGTT,0.15
16,ATGATCACGTGGTCGG,0.03
17,AGTGGCACGTGAGATT,0.24
18,ATTTTCACGTGTTGTG,0.23
19,AAGAGCACGTGCAGGG,-0.01
20,GTACGCACGTGGTGCT,-0.18
21,GTCAGCACGTGTGCGG,-0.13
22,CTAGACACGTGTTTGG,0.01
23,TGTTACACGTGGCCTT,0.04
24,GGAGGCACGTGGGATG,-0.19
25,GCTTGCACGTGTGGTT,0.14
26,GGGCACACGTGAGTGG,0.21

row,Sequence,relative binding free energy [kcal/mol]
1,ATGTACACGTGGAGAG,-0.03
2,GGGTTCACGTGTGGAC,0.3
3,GATGGCACGTGGACGT,0.01
4,GGCTTCACGTGGTGCA,0.34
5,AGCGGCACGTGTGGGT,0.04
6,GGATGCACGTGTGGGT,0.05
7,GTTACCACGTGGTGGG,0.01
8,CGCGTCACGTGGGGTG,-0.2
9,TTCGGCACGTGGGCTT,-0.2
10,ACGGGCACGTGTGTTA,-0.08
11,TCCAGCACGTGGGGGA,-0.11
12,TCGAGCACGTGGTGGA,-0.16
13,AGATTCACGTGGGATG,0.27
14,TAGAGCACGTGTGGAG,-0.16
15,TGGGTCACGTGAAGGG,0.3
16,GTTGACACGTGTGATG,0.12
17,TGGAACACGTGGGTCA,-0.16
18,GATGGCACGTGTTGGT,0.02
19,TTAAGCACGTGGGGCA,-0.27
20,AATTGCACGTGCGAGG,0.11
21,GGGCCCACGTGCTGGG,-0.15
22,GAGGTCACGTGGTAGA,0.14
23,CGATTCACGTGCGTGG,0.18
24,TAAGGCACGTGTGATC,0.09
25,ATATTCACGTGGCAGG,0.19
26,TTTATCACGTGTAGTA,0.2

row,Sequence,relative binding free energy [kcal/mol]
1,CAGGTCACGTGGAGTG,0.03
2,GAGTGCACGTGGAAAG,0.24
3,TATATCACGTGAGGGG,0.42
4,TTAAGCACGTGTATGA,-0.13
5,TCTATCACGTGTTTTT,0.25
6,GGGGCCACGTGTGATT,0.04
7,AGAAACACGTGGGGTA,-0.2
8,AGTAGCACGTGTAGGC,-0.09
9,GGTGGCACGTGTGGTC,-0.01
10,GGAATCACGTGTGCGT,0.22
11,ATAAGCACGTGTTTGG,-0.04
12,TAAGTCACGTGAAAGG,0.37
13,CGCTTCACGTGTGTTT,0.13
14,TTTGGCACGTGAGCAT,0.16
15,ATTCTCACGTGGGCGG,0.14
16,GGAGACACGTGAAGTG,0.34
17,TTGTTCACGTGTTGGG,0.24
18,TTTGTCACGTGCAATT,0.13
19,AGGATCACGTGGCAGT,0.13
20,TATGGCACGTGGAAGC,-0.09
21,GGTCGCACGTGGCCGG,-0.1
22,TTGTGCACGTGTAGGC,0.03

# — the BET-seq Pho4 binding data (Le et al. 2018)
